# Measurements as given in a collection of fitness landscapes (doi:10.1016/j.celrep.2020.107928).
# Whole data set: some 81,000 sequences, median “one-hybrid fitness for binding NBS DNA” near -0.1, cut for the highest 2% near 0.36. Some of the results follow.
# B1: Caulobacter ParB omega fusion; a variant is named by its letters at X, in order, B8GW30 (parent)
# chain: MESVVVGEPGMSEGRRGLGRGLSALLGEVDAAPAQAPGEQLGGSREAPIEILQRNPDQPRRTFREEDLEDLSNSIREKGVLQPILVRPSPDTAGEYQIVAGERAWRAAQRAGLKTVPIMVRELDDLAVLEIGIIENVQRADLNVLEEALSYKVLMEKFERTQENIAQTIGKSXSHVANXMRLLXLPDEVQSYLVSGELTAXHARAIAAAADPVALAKQIIEGGLSVRETEALARKAPNLSAGKSKGGRPPRVKDTDTQALESDLSSVLGLDVSIDHRGSTGTLTITYATLEQLDDLCNRLTRGI
# Variants of: B1
# Experiment: one-hybrid fitness for binding NBS DNA (the Noc-binding site; scaled: cognate 1, non-cognate 0); higher = stronger binding
# Conditions: with NBS DNA site
# Method in brief: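 Fitness here means the log change in variant-to-wild-type read ratio between plasmids sequenced before and after selection. That scale was set so cognate equals 1 and non-cognate equals 0. The selection was a bacterial one-hybrid screen of Caulobacter ParB libraries, four specificity codons randomised, in E. coli USO carrying a HIS3 reporter with the site 19 bp from the promoter, grown 48 hours at 37°C on M9-minus-histidine with 0.1 mM IPTG and 5 mM 3-AT.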
row,Variant,one-hybrid fitness for binding NBS DNA
1,RRDA,0.463
2,PFTA,≤ 0.2
3,VTAT,≤ 0.2
4,RGFR,≤ 0.2
5,SGEV,≤ 0.2
6,IDHS,≤ 0.2
7,SHLV,≤ 0.2
8,TTAF,≤ 0.2
9,NMRC,≤ 0.2
10,NLMY,≤ 0.2
11,RWMF,≤ 0.2
12,EVKY,≤ 0.2
13,RFHV,≤ 0.2
14,RDKG,≤ 0.2
15,YPPC,≤ 0.2
16,LACR,≤ 0.2
17,ARGD,≤ 0.2
18,SCVC,≤ 0.2
19,DIHS,≤ 0.2
20,DGTG,≤ 0.2
21,WQTS,≤ 0.2
22,FTAT,≤ 0.2
23,RYHC,≤ 0.2
24,FLWA,≤ 0.2

row,Variant,one-hybrid fitness for binding NBS DNA
1,NPPW,≤ 0.2
2,KPPQ,≤ 0.2
3,CSTR,≤ 0.2
4,AKET,≤ 0.2
5,EPGH,≤ 0.2
6,QMLN,≤ 0.2
7,EVRC,≤ 0.2
8,RMKL,≤ 0.2
9,RIWW,≤ 0.2
10,QEIS,≤ 0.2
11,PEAT,≤ 0.2
12,EPQS,≤ 0.2
13,WSMI,≤ 0.2
14,QITY,≤ 0.2
15,RREC,0.316
16,AKKF,≤ 0.2
17,TNAL,≤ 0.2
18,HIRQ,≤ 0.2
19,QYRK,0.36
20,SVQI,≤ 0.2
21,WWPS,≤ 0.2
22,RKVL,≤ 0.2
23,IMMR,≤ 0.2
24,IPMS,≤ 0.2

row,Variant,one-hybrid fitness for binding NBS DNA
1,RKGS,0.576
2,LNHM,≤ 0.2
3,GHMR,≤ 0.2
4,DCWG,≤ 0.2
5,YTAH,≤ 0.2
6,EEAT,≤ 0.2
7,MARH,≤ 0.2
8,STTM,≤ 0.2
9,ERSE,≤ 0.2
10,RGDF,≤ 0.2
11,TTYR,≤ 0.2
12,WDNV,≤ 0.2
13,SRHM,≤ 0.2
14,PKLV,≤ 0.2
15,CTKG,≤ 0.2
16,RFYY,≤ 0.2
17,CSKM,≤ 0.2
18,TSKK,≤ 0.2
19,TDRN,≤ 0.2
20,AKKG,≤ 0.2
21,QFSI,≤ 0.2
22,CLGR,≤ 0.2
23,PITE,≤ 0.2
24,WQAT,≤ 0.2

row,Variant,one-hybrid fitness for binding NBS DNA
1,DQRA,≤ 0.2
2,SSMG,≤ 0.2
3,TVHN,≤ 0.2
4,SSYV,≤ 0.2
5,TNCR,≤ 0.2
6,MGDY,≤ 0.2
7,YLRC,≤ 0.2
8,PHYC,≤ 0.2
9,RVAS,0.358
10,MAWF,≤ 0.2
11,MRQE,≤ 0.2
12,YEEG,≤ 0.2
13,VEKC,≤ 0.2
14,VPNY,≤ 0.2
15,HTQS,≤ 0.2
16,GHVG,≤ 0.2
17,YVFG,≤ 0.2
18,HYCF,≤ 0.2
19,EGHE,≤ 0.2
20,CREK,≤ 0.2
21,EAIW,≤ 0.2
22,KAKD,≤ 0.2
23,LNWR,≤ 0.2
24,HYPP,≤ 0.2

row,Variant,one-hybrid fitness for binding NBS DNA
1,NGHS,≤ 0.2
2,RNGM,≤ 0.2
3,PKAS,≤ 0.2
4,QITT,0.314
5,MTCR,≤ 0.2
6,AHGW,≤ 0.2
7,LSYN,≤ 0.2
8,VVRL,≤ 0.2
9,KDHP,≤ 0.2
10,LAIH,≤ 0.2
11,ACLL,≤ 0.2
12,HGHI,≤ 0.2
13,RLHV,≤ 0.2
14,QFMT,≤ 0.2
15,PQAN,≤ 0.2
16,INSI,≤ 0.2
17,MNLQ,≤ 0.2
18,MART,≤ 0.2
19,YNVL,≤ 0.2
20,ASDL,≤ 0.2
21,KDIG,≤ 0.2
22,QLYF,≤ 0.2
23,LLKS,≤ 0.2
24,QMPA,≤ 0.2

row,Variant,one-hybrid fitness for binding NBS DNA
1,ENTW,≤ 0.2
2,FKGR,≤ 0.2
3,HYYI,≤ 0.2
4,LANA,≤ 0.2
5,ALVN,≤ 0.2
6,QWLH,≤ 0.2
7,LTYT,≤ 0.2
8,GCDL,≤ 0.2
9,TLTT,≤ 0.2
10,GPTQ,≤ 0.2
11,THAT,≤ 0.2
12,THPL,≤ 0.2
13,DNLS,≤ 0.2
14,NDSW,≤ 0.2
15,IQIR,≤ 0.2
16,RVGK,≤ 0.2
17,WSLC,≤ 0.2
18,RVGH,≤ 0.2
19,FRKM,≤ 0.2
20,AYFQ,≤ 0.2
21,WTLT,≤ 0.2
22,CFPC,≤ 0.2
23,SNYP,≤ 0.2
24,VFRT,≤ 0.2

row,Variant,one-hybrid fitness for binding NBS DNA
1,HVTW,≤ 0.2
2,PRYG,≤ 0.2
3,SIWR,≤ 0.2
4,TERV,≤ 0.2
5,SKHN,≤ 0.2
6,GQIC,≤ 0.2
7,TGWC,≤ 0.2
8,MGAT,≤ 0.2
9,QQSK,≤ 0.2
10,PQWT,≤ 0.2
11,GKRG,≤ 0.2
12,SESY,≤ 0.2
13,HSLG,≤ 0.2
14,QTTA,0.399
15,PYPF,≤ 0.2
16,ERVT,≤ 0.2
17,FASS,≤ 0.2
18,FEFD,≤ 0.2
19,GAPR,≤ 0.2
20,VSVA,≤ 0.2
21,QRGY,0.571
22,FINL,≤ 0.2
23,STIF,≤ 0.2
24,FLTP,≤ 0.2

row,Variant,one-hybrid fitness for binding NBS DNA
1,DAPY,≤ 0.2
2,VGQR,≤ 0.2
3,IPGS,≤ 0.2
4,RQCF,≤ 0.2
5,VFGK,≤ 0.2
6,MANG,≤ 0.2
7,FTRG,≤ 0.2
8,WGTC,≤ 0.2
9,VVCC,≤ 0.2
10,EKHR,≤ 0.2
11,RKHL,≤ 0.2
12,NDSY,≤ 0.2
13,DNGR,≤ 0.2
14,RLYG,≤ 0.2
15,TDIR,≤ 0.2
16,TSDW,≤ 0.2
17,HCKR,0.251
18,DDYC,≤ 0.2
19,SVAN,≤ 0.2
20,AKVT,≤ 0.2
21,VQGW,≤ 0.2
22,EMNS,≤ 0.2
23,LWHC,≤ 0.2
24,QKMT,0.424

row,Variant,one-hybrid fitness for binding NBS DNA
1,LQYT,≤ 0.2
2,MPNS,≤ 0.2
3,KYSW,≤ 0.2
4,RMNS,0.481
5,RWKS,≤ 0.2
6,KSQT,≤ 0.2
7,INNG,≤ 0.2
8,KVYG,≤ 0.2
9,DTLY,≤ 0.2
10,YHRL,≤ 0.2
11,KWTN,≤ 0.2
12,HKIG,≤ 0.2
13,QHWG,≤ 0.2
14,SCAG,≤ 0.2
15,AMEL,≤ 0.2
16,FFST,≤ 0.2
17,AQTY,≤ 0.2
18,VWAT,≤ 0.2
19,FGAI,≤ 0.2
20,PDCG,≤ 0.2
21,QAFI,≤ 0.2
22,STAW,≤ 0.2
23,EALR,≤ 0.2
24,ELTE,≤ 0.2

row,Variant,one-hybrid fitness for binding NBS DNA
1,MIFR,≤ 0.2
2,VSEV,≤ 0.2
3,QPTC,≤ 0.2
4,MSWV,≤ 0.2
5,TAIW,≤ 0.2
6,HSTM,≤ 0.2
7,RHSS,0.438
8,LKKI,≤ 0.2
9,IGQR,≤ 0.2
10,FGRD,≤ 0.2
11,YTHM,≤ 0.2
12,RSII,≤ 0.2
13,GSDV,≤ 0.2
14,VFDG,≤ 0.2
15,TWNE,≤ 0.2
16,LWNA,≤ 0.2
17,VNTF,≤ 0.2
18,TCDC,≤ 0.2
19,KRLG,≤ 0.2
20,DQLR,≤ 0.2
21,FGGP,≤ 0.2
22,FGNI,≤ 0.2
23,ACMF,≤ 0.2
24,HNNS,≤ 0.2

row,Variant,one-hybrid fitness for binding NBS DNA
1,GMVT,≤ 0.2
2,PRAK,≤ 0.2
3,SHIF,≤ 0.2
4,AEVS,≤ 0.2
5,LSIV,≤ 0.2
6,LFTS,≤ 0.2
7,EKEY,≤ 0.2
8,YNLH,≤ 0.2
9,AAIC,≤ 0.2
10,QNEL,≤ 0.2
11,EVIS,≤ 0.2
12,TRNN,≤ 0.2
13,WWDG,≤ 0.2
14,RCEN,≤ 0.2
15,TQPC,≤ 0.2
16,ISLL,≤ 0.2
17,SMFR,≤ 0.2
18,PFQW,≤ 0.2
19,LATQ,≤ 0.2
20,GIVS,≤ 0.2
21,PYRI,≤ 0.2
22,RTPN,≤ 0.2
23,RKEA,≤ 0.2
24,ECLC,≤ 0.2

row,Variant,one-hybrid fitness for binding NBS DNA
1,ASCA,≤ 0.2
2,ALRT,≤ 0.2
3,NREA,≤ 0.2
4,TQRE,≤ 0.2
5,PPVR,≤ 0.2
6,IRFN,≤ 0.2
7,RSID,≤ 0.2
8,WGPD,≤ 0.2
9,MPDS,≤ 0.2
10,PLAY,≤ 0.2
11,ELFR,≤ 0.2
12,NMGG,≤ 0.2
13,LVQR,≤ 0.2
14,RDPG,≤ 0.2
15,SFGT,≤ 0.2
16,PRPQ,≤ 0.2
17,WYSS,≤ 0.2
18,AHPW,≤ 0.2
19,PLDN,≤ 0.2
20,TRIH,≤ 0.2
21,GHMG,≤ 0.2
22,PMWT,≤ 0.2
23,RFCS,≤ 0.2
24,RAVH,≤ 0.2

row,Variant,one-hybrid fitness for binding NBS DNA
1,LLMW,≤ 0.2
2,TDHV,≤ 0.2
3,EPHT,≤ 0.2
4,LSKQ,≤ 0.2
5,QYLN,≤ 0.2
6,PKLG,≤ 0.2
7,STMR,≤ 0.2
8,MNHT,≤ 0.2
9,QPPS,≤ 0.2
10,MSQV,≤ 0.2
11,ANNF,≤ 0.2
12,QFSS,≤ 0.2
13,IDEV,≤ 0.2
14,SEGN,≤ 0.2
15,GAIA,≤ 0.2
16,HRHH,≤ 0.2
17,RYNG,≤ 0.2
18,RVGR,0.491
